Measured values published in publication PMC4336329 (PLoS ONE, 2015).
The whole screen tested about 310,000 compounds, of which about 14,000 (4.5%) showed an effect of 50% or more. Effects have a minus sign here. This is one part of the list.

Molecular target: human ether-à-go-go-related gene (hERG) potassium channel (human, UniProt Q12809)
Assay: primary screen, population patch clamp on CHO cells stably expressing hERG
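Note: peak tail current of the secondary pulse compared with the same well before compound.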

human ether-à-go-go-related gene (hERG) potassium channel, sequence (Q12809 whole entry, looked up): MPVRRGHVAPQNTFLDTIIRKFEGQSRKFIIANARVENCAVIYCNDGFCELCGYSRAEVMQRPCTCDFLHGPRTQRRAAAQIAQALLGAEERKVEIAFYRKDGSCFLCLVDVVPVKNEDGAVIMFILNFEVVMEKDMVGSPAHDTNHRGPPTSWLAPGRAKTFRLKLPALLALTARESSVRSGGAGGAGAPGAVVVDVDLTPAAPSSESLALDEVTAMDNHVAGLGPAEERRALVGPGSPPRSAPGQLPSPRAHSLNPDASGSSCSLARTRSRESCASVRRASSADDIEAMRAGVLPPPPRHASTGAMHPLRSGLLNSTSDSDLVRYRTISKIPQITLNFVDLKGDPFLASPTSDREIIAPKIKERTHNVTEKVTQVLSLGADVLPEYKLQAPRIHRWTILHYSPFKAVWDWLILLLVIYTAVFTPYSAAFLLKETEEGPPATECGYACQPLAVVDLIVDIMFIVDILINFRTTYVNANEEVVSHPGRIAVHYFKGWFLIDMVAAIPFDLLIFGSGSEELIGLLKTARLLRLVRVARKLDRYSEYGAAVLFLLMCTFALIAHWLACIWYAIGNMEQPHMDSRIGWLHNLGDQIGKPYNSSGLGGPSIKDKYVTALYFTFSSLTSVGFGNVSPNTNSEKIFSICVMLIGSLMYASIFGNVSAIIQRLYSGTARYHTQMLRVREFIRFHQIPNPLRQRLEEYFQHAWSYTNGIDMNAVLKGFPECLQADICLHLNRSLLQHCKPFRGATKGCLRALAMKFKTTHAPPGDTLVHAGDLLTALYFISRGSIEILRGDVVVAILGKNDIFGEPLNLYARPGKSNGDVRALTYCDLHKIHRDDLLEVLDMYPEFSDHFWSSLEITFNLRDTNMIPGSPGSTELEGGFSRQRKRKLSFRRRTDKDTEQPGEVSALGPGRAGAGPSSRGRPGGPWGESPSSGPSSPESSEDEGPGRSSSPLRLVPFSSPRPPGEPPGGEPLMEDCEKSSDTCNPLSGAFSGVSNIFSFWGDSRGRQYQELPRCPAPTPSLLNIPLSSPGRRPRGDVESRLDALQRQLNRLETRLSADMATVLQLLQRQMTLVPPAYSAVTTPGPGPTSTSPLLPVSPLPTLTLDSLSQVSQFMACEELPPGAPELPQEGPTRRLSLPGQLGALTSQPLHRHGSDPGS

| SMILES | hERG current change (%, negative = inhibition) at 10uM |
| --- | --- |
| Clc1cccc(C2=NOC(c3nnc(-c4ccccc4)o3)C2)c1 (stereo not shown) | 4.19% |
| O=C(COc1ccc([N+](=O)[O-])cc1)NCC(c1cccs1)N1CCOCC1 (stereo not shown) | -48.2% |
| Cc1cc(/C=C(\C#N)C(=O)NCc2cccs2)c(C)n1-c1ccc([N+](=O)[O-])cc1 | 2.97% |
| CCCc1nc(SCc2ccc(OCC)cc2)n[nH]1 | 14.5% |
| CCN1C(=O)c2cccc3c(N)ccc(c23)C1=O | 18.7% |
| Cl.Nc1ccccc1Sc1nc2ccccc2[nH]1 | -16.3% |
| CCc1ccc(OCC(=O)Nc2ncc3c(n2)CC(C)(C)CC3=O)cc1 | -13.8% |
| Cc1nc(CS(=O)(=O)c2ccccn2)sc1C(=O)NNC(=O)c1c(F)cccc1Cl | 8.05% |
| COC(c1ccccc1)c1nnc(CCC(=O)NC2CCCCC2)o1 (stereo not shown) | 16.6% |
| Cc1nn(C)c(C)c1NC(=O)CN1CCC(O)(c2ccc3c(c2)OCO3)CC1 | -8.66% |
| O=C(c1ccc(Cn2c(=O)[nH]c3ccccc3c2=O)cc1)N1CCN(c2ccc(F)cc2)CC1 | -15.5% |
| CCCOC(=O)C1=C(C)NC2=C(C(=O)CC(C)(C)C2)C1c1cccnc1 (stereo not shown) | 3.35% |
| Br.CN(/N=C/c1ccncc1)C1=NCCN1 | 5.06% |
| COc1ccc(CCNC(=O)[C@H](C)N2C(=O)N3CCc4c([nH]c5ccccc45)[C@@]3(C)C2=O)cc1 | -19% |
| CCOc1ccc(NS(=O)(=O)c2cc(Cl)ccc2OC)cc1 | -10.3% |
| CC1(C)NC(=O)N(CC(=O)N2CCN(c3ccc([N+](=O)[O-])cc3)CC2)C1=O | -66.1% |
| Cc1cccc(C)c1OCCCCN1CCNCC1.O=C(O)C(=O)O | 12.6% |
| C[C@H](NC(=O)NC1CCCc2ccccc21)C(=O)O (stereo partly shown) | 17% |
| O/N=C/c1cn(-c2ccccc2)nc1-c1ccc2c(c1)OCCO2 | -0.701% |
| Cc1cc(C)n(-c2nc3ccccc3c(=O)n2OCCOc2ccccc2)n1 | -1.88% |
| CC1CCCC(NS(=O)(=O)c2cc(Br)cnc2N)C1C (stereo not shown) | -8.36% |
| NC1=NC(c2cn(-c3ccccc3)nc2-c2cccs2)n2c(nc3ccccc32)N1 (stereo not shown) | -1.46% |
| COc1ccc(CCN(Cc2ccccn2)C(=S)Nc2ccccc2C)cc1OC | -11.3% |
| CC/C(=N\NC(=O)Nc1ccccc1)c1c(O)n(Cc2ccccc2)c(=O)[nH]c1=O | 3.1% |
| O=C(CSc1nnc(-c2ccccn2)n1Cc1ccco1)c1ccccc1 | -42.5% |
| CS(=O)(=O)c1nsc2nc(=O)c(/C=C3\C=Nc4ccccc43)c(N)n12 | 12.4% |
| CCn1c(CNC(=O)c2ccccc2F)cc2cc(C)ccc21 | 22.2% |
| N/C(=N\NC(=O)c1ccc(F)cc1)c1cc2ccccc2oc1=O | -6.66% |

| SMILES | hERG current change (%, negative = inhibition) at 10uM |
| --- | --- |
| O=[N+]([O-])c1ccc(N(CCO)Cc2ccccc2)c([N+](=O)[O-])c1 | -11.9% |
| C=CCn1c(Cc2ccc(OC)cc2)nnc1SCC(=O)NCCc1ccccc1 | -39.2% |
| C=CCOc1ccc(/C(O)=C2\C(=O)C(=O)N(CCCOC)C2c2ccc(O)c(OC)c2)cc1 (stereo not shown) | 21.1% |
| CN(C)C(=O)c1ccc2c(c1)n(C)c(=O)n2C | 4.88% |
| Cc1onc(-c2ccccc2Cl)c1C(=O)NCc1cccs1 | -4.95% |
| O=[N+]([O-])c1ccccc1OCC(O)CN1CCN(CC(O)COc2ccccc2[N+](=O)[O-])CC1 (stereo not shown) | -60.2% |
| O=S(=O)(NCc1cccnc1)c1cc(Cl)ccc1Cl | 16.6% |
| N#Cc1ccc(S(=O)(=O)N2CCC(C(=O)Nc3cccc(C(=O)NC4CC4)c3)CC2)cc1 | 0.719% |
| CCOC(=O)C1C2C=CC3(CN(Cc4ccco4)C(=O)C13)O2 (stereo not shown) | 16.2% |
| Cc1nnc(C)n1/N=C/c1c(O)ccc2ccccc12 | 4.67% |
| Cc1c(NC(=O)c2c(NC(=O)CNC3CC3)sc3c2CCCC3)c(=O)n(-c2ccccc2)n1C.O=C(O)C(=O)O | -35.4% |
| COC(=O)c1ccsc1NC(=O)CS(=O)(=O)c1ccccc1 | -10.1% |
| CN(Cc1cccs1)CC(O)COCc1ccco1 (stereo not shown) | -16.3% |
| Cc1cccc([C@@H]2[C@@H]3C(=O)N(C)C(=O)[C@@H]3[C@@H]3C(=O)Nc4ccccc4C(=O)N23)c1 | -5.35% |
| COc1cccc(CNC(=O)CCC2CCCN(C(=O)c3cc(C)[nH]n3)C2)c1 (stereo not shown) | 31.9% |
| COc1ccc(CCC(=O)N2c3ccccc3CC2C)cc1 (stereo not shown) | 1.56% |
| Cc1ccc(NS(=O)(=O)c2ccc(NC(=O)c3cccs3)cc2)cc1 | 13% |
| O=C(NCCN1CCCCC1)c1ccco1 | 7.02% |
| COC(=O)c1[nH]c2cccc(OC)c2c1NC(=O)CN1CCN(c2cccc(OC)c2)C(C)C1 (stereo not shown) | 10.7% |
| CCN(CC)CCN(C(=O)CN1C(=O)CCC1=O)c1nc2cc3c(cc2s1)OCO3.Cl | -20.9% |
| O=C(NCCCN1CCOCC1)C1CC(=O)N(c2ccccc2)C1 (stereo not shown) | 12.1% |
| Cc1ccccc1S(=O)(=O)Cc1ccc(C(=O)NCCN(C)Cc2ccccc2)o1 | -48.5% |
| CCOC(=O)CCc1c(C)c2c(C)nn(-c3ccccc3)c2[nH]c1=O | -15.9% |
| CN1CCN(C(=O)c2cc(COc3ccc(F)cc3Cl)on2)CC1c1ccccc1 (stereo not shown) | -5.66% |
| CCOCc1nnc(NC(=O)CS(=O)(=O)c2ccc(C)cc2)s1 | 6.62% |
| CC(=O)N(C)CC#CCN1CCC(O)CC1 | 6.31% |
| N#CC1=C(N)Oc2n[nH]c(-c3ccccc3)c2C1c1cccc(OC(=O)N2CCOCC2)c1 (stereo not shown) | -5.44% |
